Source: paper PMC11995724, “Antibiotic target discovery by integrated phenotypic and activity-based profiling of electrophilic fragments” (Cell chemical biology, 2025)
Among all 3,200 compounds or so, about 110 (3.4%) showed an effect of 50% or more. The list shows a part of the results.

test system: T1, V. cholerae SAD30; parameters: species or system S. aureus MSSA476 (TSB) or V. cholerae SAD30 (LB); 384-well bacterial growth screen at 25 uM, OD600 relative to DMSO control; details: relative growth, OD600, LB; 25 µM; inhibitor
T1 construct: SAD30

| Compound | % of control remaining |
| --- | --- |
| C=CC(=O)NCc1csc2nccn12 [3-J13, N-({imidazo[2,1-b][1,3]thiazol-3-yl}methyl)prop-2-enamide] | 88.5609% |
| C=CC(=O)N1CCC(C(=O)Nc2nc3cc(F)ccc3n2CC)CC1 [3-I13, N-(1-ethyl-5-fluoro-1H-1,3-benzodiazol-2-yl)-1-(prop-2-enoyl)piperidine-4-carboxamide] | 79.2097% |
| C=CC(=O)N1CCC(Cc2ccccc2)CC1 [2-O10, 1-(4-benzylpiperidin-1-yl)prop-2-en-1-one] | 81.8585% |
| C=CC(=O)NCC1CNC(=O)c2ccccc21 (stereo not shown) [2-F17, N-[(1-oxo-1,2,3,4-tetrahydroisoquinolin-4-yl)methyl]prop-2-enamide] | 90.0415% |
| CC(C)Cc1nnc(NC(=O)CCl)s1 [4-A17, 2-chloro-N-[5-(2-methylpropyl)-1,3,4-thiadiazol-2-yl]acetamide] | 116.455% |
| CC(Cl)C(=O)N1CCc2ncsc2C1 (stereo not shown) [7-C06, 2-chloro-1-{4H,5H,6H,7H-[1,3]thiazolo[5,4-c]pyridin-5-yl}propan-1-one] | 80.8855% |
| C=CC(=O)N[C@@H](CC(N)=O)c1cccc(Cl)c1 [1-I15, N-[(1S)-2-carbamoyl-1-(3-chlorophenyl)ethyl]prop-2-enamide] | 89.5366% |
| COc1ccc(C=C(C#N)C(=O)Nc2ccc([N+](=O)[O-])cc2)cc1 [8-C05, 2-cyano-3-(4-methoxyphenyl)-N-(4-nitrophenyl)prop-2-enamide] | 82.189% |
| CCCC(=O)N1CCC(NC(=O)CCl)c2ccccc21 (stereo not shown) [6-E16, N-(1-butanoyl-1,2,3,4-tetrahydroquinolin-4-yl)-2-chloroacetamide] | 88.5771% |
| O=C1C=CC(=O)N1c1ccc(Oc2ccccc2)cc1 [10-F17, 1-(4-phenoxyphenyl)-2,5-dihydro-1H-pyrrole-2,5-dione] | 26.1835% |
| O=C(CCl)NCCc1cccs1 [5-L09, 2-chloro-N-[2-(thiophen-2-yl)ethyl]acetamide] | 105.075% |
| N#CC(=Cc1cccc2ccccc12)C(=O)NCc1ccccc1 [8-O19, N-benzyl-2-cyano-3-(naphthalen-1-yl)prop-2-enamide] | 62.0666% |
| N#CC(=Cc1cccc(F)c1)C(=O)NCCc1ccccc1 [8-J22, 2-cyano-3-(3-fluorophenyl)-N-(2-phenylethyl)prop-2-enamide] | 73.0795% |
| CC(C)N(c1ccccc1)c1ccc(NC(=O)CCl)cc1 [6-I17, 2-chloro-N-{4-[phenyl(propan-2-yl)amino]phenyl}acetamide] | 89.7905% |
| N#CC(=Cc1cccs1)C(=O)Nc1cccc2ncccc12 [8-D20, 2-cyano-N-(quinolin-5-yl)-3-(thiophen-2-yl)prop-2-enamide] | 71.584% |
| CC(Cl)C(=O)NCC(=O)Nc1ccc(F)c(F)c1F (stereo not shown) [4-D20, 2-chloro-N-{[(2,3,4-trifluorophenyl)carbamoyl]methyl}propanamide] | 102.48% |
| COC(=O)c1c(C)[nH]c(C(=O)C(C)Cl)c1C (stereo not shown) [10-D22, methyl 5-(2-chloropropanoyl)-2,4-dimethyl-1H-pyrrole-3-carboxylate] | 105.669% |
| CCc1cnc(N2CCN(C(=O)C(C)Cl)CC2)s1 (stereo not shown) [7-C20, 2-chloro-1-[4-(5-ethyl-1,3-thiazol-2-yl)piperazin-1-yl]propan-1-one] | 76.6562% |
| CN1CCN(C(=O)Cc2cccc(NC(=O)CCl)c2)CC1 [5-C22, 2-chloro-N-{3-[2-(4-methylpiperazin-1-yl)-2-oxoethyl]phenyl}acetamide] | 111.968% |
| C=CC(=O)N1CC2(CCOCC2)C1c1ccco1 (stereo not shown) [1-D22, 1-[1-(furan-2-yl)-7-oxa-2-azaspiro[3.5]nonan-2-yl]prop-2-en-1-one] | 111.384% |
| O=C(CCl)NC(CC1CC1)c1ccc(Cl)cn1 (stereo not shown) [6-F19, 2-chloro-N-[1-(5-chloropyridin-2-yl)-2-cyclopropylethyl]acetamide] | 83.2686% |
| O=C(CCl)NCc1cc(C(F)F)no1 [6-H08, 2-chloro-N-{[3-(difluoromethyl)-1,2-oxazol-5-yl]methyl}acetamide] | 92.824% |
| CC(Cl)C(=O)NCC1CN(S(C)(=O)=O)C1 (stereo not shown) [7-C04, 2-chloro-N-[(1-methanesulfonylazetidin-3-yl)methyl]propanamide] | 94.4986% |

| Compound | % of control remaining |
| --- | --- |
| CCc1ccc(-c2nn(-c3ccccc3)cc2C=C(C#N)C(N)=O)cc1 [8-O22, 2-cyano-3-[3-(4-ethylphenyl)-1-phenyl-1H-pyrazol-4-yl]prop-2-enamide] | 74.0313% |
| Cc1cccc(C)c1NC(=O)C(C#N)=Cc1ccc(OC(F)F)cc1 [8-A11, 2-cyano-3-[4-(difluoromethoxy)phenyl]-N-(2,6-dimethylphenyl)prop-2-enamide] | 85.588% |
| COc1ccccc1C(NC(=O)C(C)Cl)c1ccco1 (stereo not shown) [5-H19, 2-chloro-N-[(furan-2-yl)(2-methoxyphenyl)methyl]propanamide] | 83.5557% |
| CC(Cl)C(=O)NCc1ccc2cnn(C)c2c1 (stereo not shown) [7-D21, 2-chloro-N-[(1-methyl-1H-indazol-6-yl)methyl]propanamide] | 83.7932% |
| O=C(CCl)NC1CCN(C(=O)C2COc3ccccc3O2)CC1 (stereo not shown) [5-C09, 2-chloro-N-[1-(2,3-dihydro-1,4-benzodioxine-2-carbonyl)piperidin-4-yl]acetamide] | 95.9966% |
| CC(=O)Nc1ccc(C2=NN(C(=O)CCl)C(c3ccco3)C2)cc1 (stereo not shown) [4-G22, N-{4-[1-(2-chloroacetyl)-5-(furan-2-yl)-4,5-dihydro-1H-pyrazol-3-yl]phenyl}acetamide] | 115.074% |
| C=CC(=O)N1CC(C(N)=O)Oc2ccccc21 (stereo not shown) [1-A09, 4-(prop-2-enoyl)-3,4-dihydro-2H-1,4-benzoxazine-2-carboxamide] | 89.2377% |
| N#CC(=Cc1ccc(O)c([N+](=O)[O-])c1)C(=O)Nc1ccccc1C(=O)O [9-G10, 2-[2-cyano-3-(4-hydroxy-3-nitrophenyl)prop-2-enamido]benzoic acid] | 83.4126% |
| C=CC(=O)NCc1c(C(F)(F)F)coc1C [1-E17, N-{[2-methyl-4-(trifluoromethyl)furan-3-yl]methyl}prop-2-enamide] | 87.4439% |
| O=C1C=CC(=O)N1CCc1ccccc1F [10-G03, 1-[2-(2-fluorophenyl)ethyl]-2,5-dihydro-1H-pyrrole-2,5-dione] | 22.2872% |
| C=CC(=O)NC(C)c1ccc(S(=O)(=O)N(C)C)cc1 (stereo not shown) [3-A20, N-{1-[4-(dimethylsulfamoyl)phenyl]ethyl}prop-2-enamide] | 121.731% |
| CC(Cl)C(=O)N[C@H]1C[C@H](Cn2cncn2)C1 (stereo partly shown) [6-D20, 2-chloro-N-[(1r,3r)-3-[(1H-1,2,4-triazol-1-yl)methyl]cyclobutyl]propanamide] | 88.7288% |
| CC(C)Cn1c(N)c(C(=O)CCl)c(=O)[nH]c1=O [10-F08, 6-amino-5-(2-chloroacetyl)-1-(2-methylpropyl)-1,2,3,4-tetrahydropyrimidine-2,4-dione] | 101.305% |
| CC(Cl)C(=O)Nc1ccccc1 (stereo not shown) [5-F10, 2-chloro-N-phenylpropanamide] | 95.3242% |
| CC(Cl)C(=O)Nc1cccc2ccccc12 (stereo not shown) [5-N12, 2-chloro-N-(naphthalen-1-yl)propanamide] | 89.9443% |
| Cc1ccc(C=C(C#N)C(=O)NC2CCCCC2)cc1C [8-G10, 2-cyano-N-cyclohexyl-3-(3,4-dimethylphenyl)prop-2-enamide] | 68.3209% |
| N#CC(=Cc1cc2cc(F)ccc2o1)C(=O)NC(N)=O [8-C22, {2-cyano-2-[(5-fluoro-1-benzofuran-2-yl)methylidene]acetyl}urea] | 90.2107% |
| N#CC(=Cc1ccsc1)C(=O)NCc1ccco1 [9-H22, 2-cyano-N-[(furan-2-yl)methyl]-3-(thiophen-3-yl)prop-2-enamide] | 94.6975% |
| C=CC(=O)N1CCC(C(=O)N(C)C(C)c2sc(CC)nc2C)CC1 (stereo not shown) [2-P04, N-[1-(2-ethyl-4-methyl-1,3-thiazol-5-yl)ethyl]-N-methyl-1-(prop-2-enoyl)piperidine-4-carboxamide] | 102.702% |
| CN(C1CCCCC1)S(=O)(=O)c1ccc(NC(=O)CCl)cc1 [5-E03, 2-chloro-N-{4-[cyclohexyl(methyl)sulfamoyl]phenyl}acetamide] | 101.713% |
| CC(Cl)C(=O)Nc1ccc2c(c1)CCC2 (stereo not shown) [5-C19, 2-chloro-N-(2,3-dihydro-1H-inden-5-yl)propanamide] | 86.9181% |
| CC(Cl)C(=O)Nc1cccc(S(=O)(=O)N2CCCCC2)c1 (stereo not shown) [5-L12, 2-chloro-N-[3-(piperidine-1-sulfonyl)phenyl]propanamide] | 82.7151% |
| CC(=O)c1ccccc1NC(=O)C(C)Cl (stereo not shown) [5-O19, N-(2-acetylphenyl)-2-chloropropanamide] | 97.5097% |
